From the supplement of paper PMC11417369
± gives the standard deviation of the averaged measurements. This is one part of the list.

System: PfAP2-G AP2 domain (GST-tagged)
Assay: gcPBM binding intensity (ln(normalized median fluorescence intensity)); higher = stronger DNA binding
Procedure, shortened: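 The binding buffer was 1× PBS containing 1% milk, 0.2 mg/ml BSA, 0.5% salmon testes DNA and 0.03% Triton X-100. In it, GST-tagged P. falciparum DNA-binding domains expressed in E. coli were applied for 1 h to an Agilent 4 × 180k array of primer-extended double-stranded 36-bp intergenic genomic probes plus negative controls. Binding intensity, read with Alexa488 anti-GST antibody and a 488 nm scan, is the highest Masliner-normalised natural-log median intensity across replicate spots of either probe orientation.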

Sequence	gcPBM binding intensity (ln)
TATTTTTATAATATATGTACATATATATATATATTA [XGTACX_site5343]	11.2 ± 0.79
ACATATTATATGAATACACACAAAAACTTATCGGTA [CACACA_site3439]	10.14 ± 0.078
ATAATATCATCAAACGCACACATACATAAATATATT [CACACA_site5230]	10.1 ± 0.13
ACAGGAAAAAACAATTGTACATGTATATATATATAT [XGTACX_site7677]	10.8 ± 0.45
ATATATATATATATATGTACATATTTTATTTGAAAT [XGTACX_site7411]	11.2 ± 0.69
AAAAAAAAAAAAAAAAGTACGTATTTTTTTTAAAAT [XGTACX_site2654]	11.6 ± 0.91
AAGACAATATATGCAGTGCATATACATACATATATA	9.88 ± 0.19
GCATAATATACTCTTACACACCATTTCTAAATACAT [CACACA_site4912]	10.21 ± 0.021
ATGCTATATTAAAAACGTACAAACTGTTTAGAAAAA [XGTACX_site8943]	11.3 ± 0.88
TTTTTTCTTAAAGACATATATTTATTTGGTAAAACA [XGTACX_negctrl_site243]	9.81 ± 0.13
GGATATAACAGACACACACACACATATAAATATATT [CACACA_site7866]	10.2 ± 0.23
AAAAAAATAATTTGTAGTACGATTCAATGAAAAGGC [XGTACX_site1287]	11.2 ± 0.79
ATACATATATACATATGTACATATATATATATATAT [XGTACX_site8206]	11 ± 0.55
TTGAAAATGAAAAAATGTACTTAAAAAAAAGGAACA [XGTACX_site8664]	11.2 ± 0.71
TCTTTGAATTTTTTAACACACACATGGGTGGATATA [CACACA_site8474]	10 ± 0.2
ATAAAATTGTATAACTGTACATATATATATATATAT [XGTACX_site5596]	11.1 ± 0.66
CCCACAAAGGAATATACACACATATATATATATATA [CACACA_site4091]	10.4 ± 0.76
TAAATATTTTTTTAGACACACATATATCTATGATAT [CACACA_site1107]	9.705 ± 0.049
CAAAATAAAAATTAATGTACATAAAAAATGAATATA [XGTACX_site1085]	11.2 ± 0.59

Sequence	gcPBM binding intensity (ln)
CGGACATACATAGGAACATGCAAAATTTTTTATTTT [TGCATGCA_site575]	9.81 ± 0.099
AATAGAAAAAAAAAATGTACACATATAAAAGCATAT [XGTACX_site6306]	11.3 ± 1
TATTTACATTTATGTGCACACATTCCATTTGAAAGT [CACACA_site1954]	10.6 ± 0.35
TATTTTCTTTTTCTTGTACACACATAATATGGATGA [CACACA_site8168]	11.3 ± 0.79
GATATGTTTTCCTAGGTTCATGATGATAGGTAGTTT [XGTACX_negctrl_site217]	9.93 ± 0.042
TTTGTGGTTACATGTGCACACACTTATTTCGTTCTT [CACACA_site1435]	10.8 ± 0.35
TGTTAATATATCATTATGTTATAGGTTCAGCTGGGA [CACACA_negctrl_site401]	9.9 ± 0.11
AATATATAAATTGACACACACATATATACATATATA [CACACA_site1213]	10.1 ± 0.11
TTTTATGCATGTGAAGTGCAAAATAAAAAATAAAAT [GTGCAC_site9612]	10.22 ± 0.099
AAGGTGGTTATTAAATGTACACAGACATATACAAAA [XGTACX_site3007]	11.3 ± 0.77
AGGTAGAAAAAAGACACACACATTATATATATATAT [CACACA_site4367]	9.97 ± 0.29
ATATGCTACATTATATGTACACACATATACATATAT [XGTACX_site1656]	11.2 ± 0.69
TAATATAAAGAAATATCAATAATTTGGGCAAATGCC [GTGCAC_negctrl_site621]	9.905 ± 0.078
TATAAATATAGAATTACACACAATGTTCTATAAATA [CACACA_site7508]	9.615 ± 0.092
TATATTTGTTAATTTTGTACGTATGGATATACATAA [XGTACX_site5100]	11.2 ± 0.76
AAAGAATACATATATTGTACATATATATATACCGTT [XGTACX_site6250]	10.9 ± 0.41
AGAATTAAAATAAAGGTGCATTTTTTTGTTTCATGT	9.965 ± 0.021
ATAATACAAAACACAAGTACATAAATTAAAAAGATG [XGTACX_site7839]	11.4 ± 0.7
AATAATATACCTCTTGTGCACATATTAAAAGTTCAT [GTGCAC_site9536]	10.5 ± 0.2

Sequence	gcPBM binding intensity (ln)
TTCGTCTTTTTTCTCACACACCCTTTTTATTAAAAG [CACACA_site7225]	10.4 ± 0.12
AAAAAAAAAGGTACTACACACTATTCTCAATAGAAA [CACACA_site6193]	11.1 ± 0.86
AATTTCATTTTACTTATCTAATATTTATAATCTTTT [CACACA_negctrl_site636]	9.86 ± 0.057
TTCATTCATTTTATTACACACAAAAAAAAAAAAAAA [CACACA_site3680]	10.1 ± 0.6
AGTTATTTTATAGAATATGAATAATTTTACTTTTCA [XGTACX_negctrl_site403]	9.53 ± 0.12
TATAAATTATTTATCACACATAAAACAAAAATAAGA [CACACA_site5493]	10.2 ± 0.2
TACTTCATATAATTAGCACACAATAATTTCTCATTT [CACACA_site2872]	10.06 ± 0.042
AATTTTTATATAATTTAACACACATTTCATATAAAA [CACACA_site9018]	10.1 ± 0.23
TTAGGATATTTATTTCGTACATATATTTTTAATTGT [XGTACX_site582]	10.8 ± 0.45
TACATATTCCTACAAATGTATAAATTATAAATATTA [XGTACX_negctrl_site30]	9.59 ± 0.11
AACGATATAGGTACTACACACATTATGTCATCCTAT [CACACA_site7205]	11.2 ± 0.77
TGTATATGTTTAATTAGTACATATAAAGTAACAATA [XGTACX_site1207]	11.1 ± 0.82
ATATGAAATATATGTAGTACACATAATTAAAAGTAG [XGTACX_site6490]	11.7 ± 0.86
ATATATATTAAAAATAGTACATATAATAAAAATCAT [XGTACX_site4265]	11.1 ± 0.73
AAAAAAAAATAATATACACACTCCAATATAAAAAAT [CACACA_site3958]	9.73 ± 0.17
TGTGTATTATAAACATGTACATAAAAATACGATATT [XGTACX_site3643]	11.4 ± 0.72
CGCACTAAAAAACACACACACACACCCATATATATA [CACACA_site4152]	10.1 ± 0.25
TATTATATTGTTCATTTACACTTTCATTTTAAAAAA [CACACA_negctrl_site260]	10.2 ± 0.18
ATATAATAACAAAAGGTGCGCATTAAGACAAAAAAA	10.4 ± 0.3
